According to article PMC10570955:
These are yes or no findings as the source states them, for the method shown. In cells and extracts the contact can be indirect. Some entries that bind do so weakly or less than the wild type. For some of these results: Where a sequence is shown, tags or fusion partners need not be part of it. Each block holds one binder with its values, some of them ahead of it.

Protein sequences, listed by entry. Tags and fused reporters are not part of them. Residues count along the entry.
UniProt Q01973, residues 30-937: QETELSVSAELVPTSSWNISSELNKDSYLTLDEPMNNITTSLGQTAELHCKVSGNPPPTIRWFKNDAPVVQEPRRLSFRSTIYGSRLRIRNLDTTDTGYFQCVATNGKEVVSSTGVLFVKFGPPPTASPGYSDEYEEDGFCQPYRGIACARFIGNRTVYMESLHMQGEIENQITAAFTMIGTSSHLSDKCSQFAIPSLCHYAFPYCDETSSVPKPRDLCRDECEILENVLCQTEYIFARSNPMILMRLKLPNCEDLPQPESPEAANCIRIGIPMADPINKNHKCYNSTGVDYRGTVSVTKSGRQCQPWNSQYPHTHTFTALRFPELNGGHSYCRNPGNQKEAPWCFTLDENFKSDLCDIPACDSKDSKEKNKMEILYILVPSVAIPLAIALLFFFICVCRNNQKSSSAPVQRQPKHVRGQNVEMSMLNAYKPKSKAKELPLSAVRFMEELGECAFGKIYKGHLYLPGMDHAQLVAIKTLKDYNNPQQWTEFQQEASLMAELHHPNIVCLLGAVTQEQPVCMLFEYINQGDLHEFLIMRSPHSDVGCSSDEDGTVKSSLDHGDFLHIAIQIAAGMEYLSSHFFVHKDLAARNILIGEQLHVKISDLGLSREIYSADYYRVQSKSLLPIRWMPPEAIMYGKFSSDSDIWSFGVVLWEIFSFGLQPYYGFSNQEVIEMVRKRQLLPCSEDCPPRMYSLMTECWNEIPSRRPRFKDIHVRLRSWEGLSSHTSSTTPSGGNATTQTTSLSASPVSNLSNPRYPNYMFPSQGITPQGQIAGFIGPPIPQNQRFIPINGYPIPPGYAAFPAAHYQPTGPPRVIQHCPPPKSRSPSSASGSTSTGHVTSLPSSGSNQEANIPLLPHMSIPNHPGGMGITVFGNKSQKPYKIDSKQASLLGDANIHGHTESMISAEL
UniProt Q01974, residues 34-943: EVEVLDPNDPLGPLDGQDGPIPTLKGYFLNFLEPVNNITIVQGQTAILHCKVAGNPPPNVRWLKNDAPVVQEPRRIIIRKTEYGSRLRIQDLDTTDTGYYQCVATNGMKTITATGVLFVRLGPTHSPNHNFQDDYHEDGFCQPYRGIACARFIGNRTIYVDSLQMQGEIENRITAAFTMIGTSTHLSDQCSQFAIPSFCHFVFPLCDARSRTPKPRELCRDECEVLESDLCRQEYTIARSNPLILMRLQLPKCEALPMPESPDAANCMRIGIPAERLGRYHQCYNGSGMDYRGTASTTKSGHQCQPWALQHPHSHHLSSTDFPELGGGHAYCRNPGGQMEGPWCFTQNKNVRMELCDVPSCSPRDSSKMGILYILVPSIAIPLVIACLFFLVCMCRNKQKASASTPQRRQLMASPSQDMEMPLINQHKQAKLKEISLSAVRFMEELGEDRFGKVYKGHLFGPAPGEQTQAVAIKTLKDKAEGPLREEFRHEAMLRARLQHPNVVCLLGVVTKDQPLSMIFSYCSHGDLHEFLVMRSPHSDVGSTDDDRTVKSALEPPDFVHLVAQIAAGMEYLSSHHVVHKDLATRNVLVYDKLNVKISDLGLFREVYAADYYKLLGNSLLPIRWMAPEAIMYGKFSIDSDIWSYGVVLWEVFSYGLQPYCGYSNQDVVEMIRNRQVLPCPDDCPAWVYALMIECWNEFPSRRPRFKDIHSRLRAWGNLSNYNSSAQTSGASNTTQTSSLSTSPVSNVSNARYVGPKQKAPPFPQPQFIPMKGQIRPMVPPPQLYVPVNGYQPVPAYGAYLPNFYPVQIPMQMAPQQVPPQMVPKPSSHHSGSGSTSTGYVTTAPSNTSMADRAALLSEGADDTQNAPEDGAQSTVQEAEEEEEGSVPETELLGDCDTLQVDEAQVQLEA
UniProt O08808, residues 82-379: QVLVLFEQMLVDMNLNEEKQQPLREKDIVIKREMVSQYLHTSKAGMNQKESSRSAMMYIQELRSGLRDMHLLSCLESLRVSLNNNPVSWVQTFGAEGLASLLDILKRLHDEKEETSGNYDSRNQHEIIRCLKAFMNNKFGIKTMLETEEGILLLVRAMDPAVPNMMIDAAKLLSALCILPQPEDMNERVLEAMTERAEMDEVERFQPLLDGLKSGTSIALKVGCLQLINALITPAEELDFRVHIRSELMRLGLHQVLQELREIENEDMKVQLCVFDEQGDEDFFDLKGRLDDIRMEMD

Assays:
Ror1-mCherry (human) = Ror1-mCherry (human) (UniProt Q01973); assay: co-IP; whole-cell lysates of 293T cells expressing Flag-Rif with Ror1-mCherry or Ror2-mCherry; IP with anti-RFP antibody (recognizes mCherry), Western blotting; lysis buffer 50 mM Tris-HCl pH 7.4, 0.5% Nonidet P-40, 150 mM NaCl, 5 mM EDTA
Ror2-mCherry (human) = Ror2-mCherry (human) (UniProt Q01974); assay: as above
[1] = target: endogenous Ror1 (human (endogenous in PC9, HCC827, A549)) (UniProt Q01973); assay: co-IP; endogenous proteins; whole-cell lysates of PC9, HCC827 and A549 cells; IP with anti-Ror1 antibody or isotype-matched control immunoglobulin G, Western blotting
[2] = target: GST-mDia1-Rho-binding domain (RBD) fusion protein (mouse) (UniProt O08808); assay: pull-down; effector pull-down (affinity precipitation) with 20 ug of GST-mDia1-RBD or GST-rhotekin-RBD from PC9 lysates, endogenous GTPases; also after Ror1 knockdown (level of GTP-bound Rif unaltered); only the target purified
[3] = target: GST-mDia1-Rho-binding domain (RBD) fusion protein (mouse) (UniProt O08808); assay: pull-down; effector pull-down (affinity precipitation) with 20 ug of GST-mDia1-RBD from lysates of 293T cells expressing Rif WT, QL or TN; only the target purified

binding [1]: binds
binding [2]: binds
B2: endogenous Rif (Rho in filopodia, RhoF) (protein, UniProt Q9HBH0 1-211)
chain: MDAPGALAQTAAPGPGRKELKIVIVGDGGCGKTSLLMVYSQGSFPEHYAPSVFEKYTASVTVGSKEVTLNLYDTAGQEDYDRLRPLSYQNTHLVLICYDVMNPTSYDNVLIKWFPEVTHFCRGIPMVLIGCKTDLRKDKEQLRKLRAAQLEPITYMQGLSACEQIRAALYLECSAKFRENVEDVFREAAKVALSALKKAQRQKKRRLCLLL

binding [3]: binds
B3: WT Rif expressed in 293T cells (effector pull-down) (protein, UniProt Q9HBH0 1-211)
chain: MDAPGALAQTAAPGPGRKELKIVIVGDGGCGKTSLLMVYSQGSFPEHYAPSVFEKYTASVTVGSKEVTLNLYDTAGQEDYDRLRPLSYQNTHLVLICYDVMNPTSYDNVLIKWFPEVTHFCRGIPMVLIGCKTDLRKDKEQLRKLRAAQLEPITYMQGLSACEQIRAALYLECSAKFRENVEDVFREAAKVALSALKKAQRQKKRRLCLLL

The remaining lines, values behind:

B1: Flag-Rif (Rho in filopodia, RhoF), wild type (protein, UniProt Q9HBH0 1-211)
chain: MDAPGALAQTAAPGPGRKELKIVIVGDGGCGKTSLLMVYSQGSFPEHYAPSVFEKYTASVTVGSKEVTLNLYDTAGQEDYDRLRPLSYQNTHLVLICYDVMNPTSYDNVLIKWFPEVTHFCRGIPMVLIGCKTDLRKDKEQLRKLRAAQLEPITYMQGLSACEQIRAALYLECSAKFRENVEDVFREAAKVALSALKKAQRQKKRRLCLLL
binding (Ror1-mCherry (human)): binds
binding (Ror2-mCherry (human)): binds

B4: Rif(QL), constitutively active GTP-bound form, expressed in 293T cells (protein, UniProt Q9HBH0 1-211)
chain: MDAPGALAQTAAPGPGRKELKIVIVGDGGCGKTSLLMVYSQGSFPEHYAPSVFEKYTASVTVGSKEVTLNLYDTAGLEDYDRLRPLSYQNTHLVLICYDVMNPTSYDNVLIKWFPEVTHFCRGIPMVLIGCKTDLRKDKEQLRKLRAAQLEPITYMQGLSACEQIRAALYLECSAKFRENVEDVFREAAKVALSALKKAQRQKKRRLCLLL
binding [3]: binds

B5: Rif(TN), GDP-bound form, expressed in 293T cells (protein, UniProt Q9HBH0 1-211)
chain: MDAPGALAQTAAPGPGRKELKIVIVGDGGCGKNSLLMVYSQGSFPEHYAPSVFEKYTASVTVGSKEVTLNLYDTAGQEDYDRLRPLSYQNTHLVLICYDVMNPTSYDNVLIKWFPEVTHFCRGIPMVLIGCKTDLRKDKEQLRKLRAAQLEPITYMQGLSACEQIRAALYLECSAKFRENVEDVFREAAKVALSALKKAQRQKKRRLCLLL
binding [3]: no binding
